Some compounds were tested as several samples or in several runs, with calls that do not always agree.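 Treatment: one concentration, 48 hours, 96-well format. Scoring: percent growth, with anything below 10 considered active.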 Certain results were filed several times, with different values. The list is limited to them. There may be further records. These are repeated runs of one drug, at the concentration stated with the values; each value is one run. Marks such as (2×) give the number of equal values in this list.

In this assay the test system is SK-MEL-2 melanoma. The experiment in a line: NCI-60 one-dose screen, 48 h (100 = growth as untreated, 0 = no growth, -100 = all killed).

Regarding `COc1cccc2c1C(=O)c1c(O)c3c(c(O)c1C2=O)C[C@@](O)(C(=O)CO)C[C@@H]3OC1CC(N)C(O)C(C)O1` (stereo not given in full), the growth entry (0.25 µM, runs of 2009) is “inactive: 27.5, 39.3 (2×), 14, 34.4, 86.3, 95.8, 105, 80.5, 64.5, 59.9, 69.1, 83.8, 44.2, 50.2, 61.6, 49.3 (2×), 65, 61.7, 67.9, 67.2, 61.1, 44.1, 46.5, 48.2, 40.6 (2×), 30.6, 55.4, 49.1, 68.8, 36.8, 45.5, 90.3, 62.8, 74.3, 83.7, 62, 47.5, 42.2 (2×), 44.9, 74.2, 28.2, 57.4, 66.7, 23.5, 46.4, 32.6, 28.9, 51.7 (2×), 50.4, 19.8, 52.9, 23.2, 50.5, 64.1, 85.6, 47.8 (2×), 72.5, 72.4, 69.9, 45, 41.5, 42.8, 28.3, 56.3, 41.6% and active: 3.22%”; the growth entry (0.25 µM, runs of 2010) was “inactive: 48.7, 43.1, 46.9, 49.1, 40, 74, 50.3, 63.3, 60.4, 43.9, 47.8, 50.5, 43.6, 37.4, 38.9, 61.1, 37.2, 37.6, 24.5, 38.6 (2×), 47.2 (2×), 50.6, 37.1, 62.6, 65.4, 57.2, 32.7, 53, 55.7, 77.4, 44, 39, 40.3, 48.3, 39.7, 41.9, 56.9, 63.6, 112, 45.6, 72.2, 87.6, 67.3, 55.5, 63.1, 45.4, 62.7, 60% and active: 7.62%”; the growth entry (0.25 µM, runs of 2011) was “inactive: 88.7, 63.6, 57.7, 52.7, 63, 71.5, 83.1, 66.2, 61.4, 31.2, 87.3, 68.9 (2×), 47.3, 96.9, 104, 67.1, 89.6 (2×), 88.6 (2×), 95.3, 86.8, 83, 74.2, 84.4, 86, 92.5, 62.5 (2×), 47.4, 84, 42.4, 53.6, 75.2, 56.2, 47.5, 40.7, 68.5, 59.2, 47.8, 53.3, 25.7, 51.8, 56, 60.3, 38.5, 85.2, 80.9, 60.6, 54.7, 72.1, 84.7, 73.6, 72.6, 69.5%”; the growth result (0.25 µM, runs of 2012) was “inactive: 67.2 (2×), 38.9, 60.6, 66.1, 65.8, 49.8, 61.6, 73.9, 71.8, 86.8, 37.3, 39.1, 54.1, 66, 44, 57.4, 43, 53.3, 29.2, 45, 44.7, 33, 49, 64.1, 80.9, 82.1, 76.5, 59.3, 69, 76, 87.5, 73, 63.3, 87.9, 73.5, 52.3 (2×), 88.9, 61.2, 76.2, 71.5, 95.4, 87.2, 63.2, 98.6 (2×), 106, 108, 110, 122, 115, 95.1, 119, 92.8, 45.5, 33.2, 76.9, 68, 52.2, 83.6, 83.8, 55, 38.7, 83.7, 32.2, 70.6%”; the growth entry (0.25 µM, runs of 2013) is “inactive: 49.2, 96.8, 70.7, 57.4 (2×), 62.7, 77.6, 80.1, 79.7, 80.4 (2×), 87.3, 94.6, 86.6, 95.3, 82.4 (2×), 85.7, 81.1, 88.7, 68.6, 77, 69.2, 87.9 (2×), 93.1, 87.4, 79.8, 86.1, 92.4, 82.1, 95, 80.7, 78, 86.5, 89.2, 79.4, 81.8, 89.5, 62.2, 76, 75.9, 76.3, 108, 105, 110, 86.3, 77.2, 88.8, 73, 63.8, 63.2, 71.1, 56.8, 61.5, 62.4, 54, 81.7, 62.5, 84.3, 85, 91.4, 46.5, 68.3, 65.2, 77.3%”; the growth entry (0.25 µM, runs of 2014) was “inactive: 52 (2×), 64 (4×), 48.6, 36.2, 61.5 (3×), 63.5, 51, 57.7, 60.9 (2×), 67.2, 68, 56.8, 81.1, 67, 63.9, 58.2, 77.6, 82, 68.1, 71.5 (3×), 78.1 (2×), 77.3, 76.6, 73.5, 82.5, 79.5, 65.8, 64.7, 64.3, 67.3, 75.2, 73, 65.7, 75.1, 70.7, 63.3 (2×), 62.8, 72.3, 67.1, 58.3, 60.1, 53, 72, 61.8, 54, 42.3, 39.7, 64.5, 43.9, 52.2, 64.6, 68.8, 48, 48.5, 59.4, 79.9, 61.9, 69.5, 61.6, 70.9, 69, 76.5, 49.4, 86.3, 58.7, 65.4, 73.1, 52.1, 68.3%”. Moreover, the growth entry (0.25 µM, runs of 2015) is “inactive: 77.3, 67.3, 37.6, 98.1, 50.8, 64.3, 80, 71.4, 52.7 (3×), 54.1, 57.6 (2×), 67.7, 64.9, 74.7, 80.8, 75.4, 42.8, 41.7, 52.4, 61.2, 77.5, 59.6, 53.1, 62.5, 68.1, 78, 61.4, 37, 14.2, 67.9, 52.9, 54.5, 42.2, 40.2, 45.6, 44.7, 58.2, 48 (2×), 50.7, 46.3, 46.8, 50.1, 56.5 (2×), 62.7, 59.8, 62.1, 42.3, 60.3 (2×), 64.6, 79.5, 66.4, 78.2, 63.6, 86.9, 76.3, 79, 71.3, 48.3, 56.8, 69.7, 83.5, 67.6, 55.8, 77.6, 51.4, 83.8, 75.8, 79.6, 74.5, 65.6, 60.8, 50.4, 62, 46, 60.4, 67.1, 53.8, 50.5, 51, 40.8%”; the growth result (0.25 µM, runs of 2016) was “inactive: 58.9, 64.8 (3×), 65.8, 59.7, 57.5, 53.9, 66.4 (2×), 61.8 (3×), 45.1, 55.8, 51, 58.2, 44.5 (2×), 40, 63.8, 46, 46.4 (2×), 56.2, 54.3, 43, 25.5, 47.6 (2×), 46.8, 37.2, 57 (2×), 29.6, 57.9 (2×), 54.9, 39.3, 50.2, 49.2, 63.5, 47.3, 54.8 (2×), 59.9, 53.8, 49.1, 55.3, 60.5, 61.5, 58.3, 58.4, 50.7, 62.8, 90, 85.8, 82.3, 74.8, 66.3, 59, 64.7, 62.7, 53, 58.5, 59.6, 60.6, 76.2, 67.2, 79.6, 51.4, 57.6, 55.5, 64, 62.2, 70.7, 69.7, 58.7, 60.7, 47.1, 40.4, 48.3, 50.4, 66.7, 51.2%”; the growth result (0.25 µM, runs of 2017) is “inactive: 64.9, 61.9, 62.8 (2×), 60.6, 49.9, 54, 42.3, 50.7 (2×), 56.4, 59.4 (2×), 47.2, 51.2, 56.1 (2×), 55.8, 48.1, 50.8, 48.5, 50.4 (2×), 46.3, 46.9, 52.3, 47.6 (2×), 65.2, 47.8 (2×), 52.9, 57.2 (2×), 51.7 (2×), 61.8, 39.7, 58.6, 64.1, 54.3, 44.7, 52 (3×), 52.4, 63.1, 49.2, 60.8, 59.3, 45.9, 60.1, 67.4, 58.1, 59.2, 68.3, 60.4, 50.6, 48.6, 52.7, 57, 61.2, 58.8, 53.6, 50.2, 57.4, 61.4, 61, 62.7, 57.5 (2×), 59.9, 58.3, 57.9, 55, 49.7, 57.3, 52.2, 51.6, 49, 56, 58.5, 61.1%”; the growth entry (0.25 µM, runs of 2018) was “inactive: 58.1, 61.3, 58.9, 56.7, 62.2 (2×), 64 (2×), 58.3, 60.6, 60.2, 55, 66.9, 69, 67.3, 63.1, 58.5, 42.8, 82.4 (2×), 63.9, 67.1, 69.4, 67.8, 62.7, 65.4, 68.1, 63.3, 73.2, 78.9, 58.6, 60.8, 72.6, 65.3, 60.3, 45.6, 61.2, 70.2, 81.6, 84.4, 72.3, 73, 66.7, 79.4, 73.5, 75.8, 73.9, 67.2, 70.7, 61.9, 70.6, 66.3, 56.6, 44.6, 59.7, 41.3, 28.5%”; the growth result (0.25 µM, runs of 2019) is “inactive: 47.5, 32.9, 42, 43.6, 51, 54.8, 51.2, 57.8, 50.4, 47.4, 61, 50.6, 62.3, 61.5, 59, 62.5, 59.8, 47.6 (2×), 67.9, 60.6, 67.8, 56.5, 55.3, 63.9, 68.4, 63.4 (2×), 54.1 (2×), 67.2, 55, 61.9, 64.6, 67.3, 63, 64.1, 52.7, 65, 73.1, 66, 58.5, 68.6, 48.5, 70.1, 70.2, 48.7, 55.8, 48.6, 58.9, 56%”; the growth entry (0.25 µM, runs of 2020) was “inactive: 51.3, 55.6, 62.8, 58.8, 67.8, 67.6, 60.9, 72.1, 72.5, 83.1, 67.4, 66.4, 62, 68.1, 88.2, 66.7, 59.9, 83.6, 62.7, 70.3, 76.2, 62.2, 47.7, 50.1, 49.7%”. The growth entry was “inactive: 82.5, 97.4, 88.2, 93.8, 83.3, 71.6, 82.4, 86.8, 76.9, 81.6, 65.5, 81.8, 71.5 (3×), 81, 74.7, 78.9, 74.5, 72.2, 95.8, 62.7, 53.8, 61.3, 62.8, 59.4, 56.2, 73.3, 87.7, 81.9, 68.5, 62, 67.2, 66.3, 70.8, 61.2, 95.6, 78.1, 99.7, 67.8, 81.1, 76.7, 44.1, 78.7, 122, 61, 54.8, 81.4, 73.4, 82%” (0.25 µM, runs of 2021); “active: -35.3%, -10.7%, -52.2% and inactive: 50.8, 41, 33.1, 19.4, 51.5, 54.2, 78.3, 51.3, 79, 89.3, 75.3, 74.9, 61.2, 60.3, 56.5, 106, 95.2, 123, 127, 132, 94, 88.1, 83.9, 69%” (0.25 µM, runs of 2022); “active: -83.9, -82.3, -93.6, -91.9, -99, -94.8, -85.5, -74.1, -94, -99.5, -97.1, -56.4, -88.8, -88.5, -92.1, -90.8, -94.1, -96, -96.5%” (25 µM, runs of 1991).

(Values after PubChem BioAssay (NCI).)
